# Experimental data taken from paper PMC4336329 (PLoS ONE, 2015).
# The whole screen tested about 310,000 compounds, of which about 14,000 (4.5%) showed an effect of 50% or more. Effects have a minus sign here. The list shows a part of the results.
# Biological target: human ether-à-go-go-related gene (hERG) potassium channel (human, UniProt Q12809)
# Experiment: primary screen, population patch clamp on CHO cells stably expressing hERG
# 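Also: peak tail current of the secondary pulse compared with the same well before compound.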
# Chain of human ether-à-go-go-related gene (hERG) potassium channel (Q12809 whole entry, looked up): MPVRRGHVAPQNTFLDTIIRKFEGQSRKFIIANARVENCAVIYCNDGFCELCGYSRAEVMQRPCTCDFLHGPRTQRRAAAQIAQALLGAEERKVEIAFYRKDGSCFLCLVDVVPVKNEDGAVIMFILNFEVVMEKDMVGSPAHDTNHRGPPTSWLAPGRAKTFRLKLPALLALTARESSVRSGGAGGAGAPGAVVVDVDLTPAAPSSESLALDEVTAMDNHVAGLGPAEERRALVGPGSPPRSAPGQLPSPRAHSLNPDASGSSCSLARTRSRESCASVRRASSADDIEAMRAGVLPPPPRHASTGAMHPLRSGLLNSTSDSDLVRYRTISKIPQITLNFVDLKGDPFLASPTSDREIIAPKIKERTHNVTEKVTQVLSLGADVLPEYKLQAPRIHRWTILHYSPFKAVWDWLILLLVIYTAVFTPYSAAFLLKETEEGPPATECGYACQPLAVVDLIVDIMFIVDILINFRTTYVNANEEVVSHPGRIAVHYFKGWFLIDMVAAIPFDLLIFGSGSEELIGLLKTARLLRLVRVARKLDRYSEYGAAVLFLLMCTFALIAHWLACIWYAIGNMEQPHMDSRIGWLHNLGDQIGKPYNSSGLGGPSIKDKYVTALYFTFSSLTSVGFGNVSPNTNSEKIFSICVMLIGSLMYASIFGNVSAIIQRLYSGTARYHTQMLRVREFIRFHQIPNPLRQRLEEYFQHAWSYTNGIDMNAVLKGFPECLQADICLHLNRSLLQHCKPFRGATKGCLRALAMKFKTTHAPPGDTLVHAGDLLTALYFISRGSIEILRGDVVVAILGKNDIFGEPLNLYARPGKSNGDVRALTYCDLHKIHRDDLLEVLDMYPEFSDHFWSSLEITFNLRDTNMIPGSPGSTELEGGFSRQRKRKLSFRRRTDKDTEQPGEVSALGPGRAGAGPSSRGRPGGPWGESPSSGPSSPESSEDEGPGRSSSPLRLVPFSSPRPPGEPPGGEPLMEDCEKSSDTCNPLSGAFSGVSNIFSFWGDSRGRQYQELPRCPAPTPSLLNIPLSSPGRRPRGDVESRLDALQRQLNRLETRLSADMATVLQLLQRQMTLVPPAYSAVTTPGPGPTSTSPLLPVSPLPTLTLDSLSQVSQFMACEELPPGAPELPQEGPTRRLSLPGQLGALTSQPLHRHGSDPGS
row,SMILES,"hERG current change (%, negative = inhibition) at 10uM [%]"
1,CC(=O)Cc1nsc(NC(=O)c2ccc(COc3ccc(C)cc3)o2)n1,-6.48
2,O=C(COC(=O)C1CC(=O)N(c2nc(-c3ccccc3)cs2)C1)c1ccccc1 (centres unmarked),26.9
3,CC(=O)Nc1ccc(-c2nnn(CC(=O)Nc3ccc4c(c3)OCO4)n2)cc1Cl,14.8
4,O=c1cc(-c2ccccc2)oc2ccccc12,-4.17
5,COc1ccc(C(=O)NCCCCNC(=O)c2ccc(OC)c(OC)c2)cc1OC,12.2
6,CC(C)c1ccc(NC2CCCN(C(=O)CSc3nncn3C)C2)cc1 (centres unmarked),17.4
7,Cc1ccc(C(=O)NCc2ccc3c(c2)OCO3)cc1S(=O)(=O)N1CCCCC1,-26.4
8,O=[N+]([O-])c1cc2c(cc1[N+](=O)[O-])OCCOCCOCCOCCO2,-59.3
9,CCNc1nc(NCC)nc(Oc2ccc(OCc3ccccc3)nn2)n1,9.65
10,CCOc1ccc(CCNC(=O)CSCc2ccc(C)cc2)cc1OCC,-2.33
11,COc1cccc(CN(C)c2nc(-c3cccs3)nc3ccccc23)c1,-3.14
12,CCCC(C)C(=O)Nc1ccccc1C(=O)OCC (centres unmarked),-4.39
13,O=C(CN1C(=O)c2cccnc2Oc2ccc(Cl)cc21)NC1CCCCC1,-13.1
14,Cc1nnc(SCC(=O)n2c3c(c4ccccc42)CCCC3)s1,9.65
15,CCOc1ccc(-c2cc(C(=O)Nc3ccc4c(c3)OCCO4)c3ccccc3n2)cc1,13.5
16,COC(=O)c1c(NC(=O)c2ccccc2)sc(C(N)=O)c1C,15.9
17,CSc1ccc(CNCC2CCCO2)cc1.Cl (centres unmarked),2.99
18,COc1cc2oc(-c3ccc(O)cc3)cc(=O)c2c(O)c1OC,-18.2
19,CC(C)OC(=O)c1cccnc1SCC(=O)N(C)c1ccccc1,-9.73
20,Cc1oc2c(CN3CCCC3)c(O)ccc2c(=O)c1-c1ccc(Br)cc1,-14.1
21,COc1ccc(OC)c(C2=C/C(=C/c3ccccn3)C(=O)O2)c1,-8.04
22,Cc1cc(C)c(NC(=O)/C(C#N)=C/c2ccc(OCc3ccc(F)cc3)cc2)c(C)c1,-1.54
23,O=C1CCCc2sccc2N1,-6.61

row,SMILES,"hERG current change (%, negative = inhibition) at 10uM [%]"
1,CCOC(=O)C1=C(CSc2nncn2C)NC(=O)NC1c1cc(OCC)ccc1OCC (centres unmarked),6.87
2,CCOC(=O)N1CCN(C(=O)c2cnn(-c3ccccc3)c2NC(=O)c2ccccc2F)CC1,-1.25
3,COc1ccc(-c2cc(C(=O)NCCN3CCOCC3)c3ccccc3n2)cc1OC,12.4
4,CN(C(=O)CS(=O)(=O)c1cn(CC(=O)N2CCCC2)c2ccccc12)c1ccccc1,-3.8
5,Cc1ccccc1NC(=O)CCC(=O)N/N=C/c1c[nH]c2ccccc12,2.16
6,CC#CCN(CC#CC)S(=O)(=O)c1ccc(S(=O)(=O)N2CCOCC2)cc1,-8.35
7,COc1ccc(CCNC(=O)C2(C)CCC(=O)N2Cc2ccc(C)cc2)cc1OC (centres unmarked),14.2
8,Cc1cc(OCC(=O)Nc2cccnc2)c2c(C)cc(=O)oc2c1,4.24
9,CC1CCCC(C)N1CCNC(=O)CCn1nc(-c2ccccc2)ccc1=O (centres unmarked),-46.8
10,CC1=C(C(=O)c2ccccc2)C(c2ccc(O)cc2)NC(=S)N1 (centres unmarked),2.12
11,Cn1c(N2CCOCC2)c(/C=N/OC(=O)c2ccc(F)cc2)c2ccccc21,-4.32
12,CCOC(=O)c1[nH]c(=O)[nH]c1COC(=O)c1cc2ccccc2o1,-5.46
13,CCn1c(SCC(=O)Nc2ccccc2N2CCOCC2)nnc1-c1ccccc1O,-23.9
14,CCc1ccc(-c2cc3c(=O)n(CC(=O)NCCN4CCCCC4C)nc(C)n3n2)cc1 (centres unmarked),-57.5
15,O=[N+]([O-])c1cc(/C=N/N2CCN(c3ccccc3)CC2)ccc1Cl,2.14
16,O=C(CNC(=O)c1ccc2c(c1)OCCO2)N=Nc1c(O)[nH]c2ccccc12,7.19
17,O=C(NCC(=O)N1CCc2ccccc2C1)c1ccccc1Cl,4.34
18,Cc1ccc(C(=O)c2cc(Br)ccc2N)cc1,11.8
19,N#Cc1nc(-c2ccc(F)cc2)oc1NCCN1CCOCC1,-0.823
20,Cc1cccc(-c2nsc(SCC(=O)Nc3cc(C)on3)n2)c1,16.1
21,COc1ccc(C)cc1S(=O)(=O)Nc1cc2c3c(c1)CCC(=O)N3CCC2,7.28
22,Cc1nc(C(=O)NNC(=O)c2ccc(Cl)cc2)c(C(F)(F)F)o1,7.36
23,CN1/C(=C/C(=S)NC(=O)C2(C)CC2(Cl)Cl)C(C)(C)c2ccccc21 (centres unmarked),-10

row,SMILES,"hERG current change (%, negative = inhibition) at 10uM [%]"
1,Cc1ccc(NC(=O)CC2SC3=NCCN3C2=O)cc1 (centres unmarked),-5.4
2,O=C(NCC(c1ccco1)N1CCN(c2ccccc2F)CC1)C(=O)NC1CCCCC1 (centres unmarked),18.5
3,Cc1cc(NC(=O)CSc2nc3cc(Cl)ccc3s2)no1,13.8
4,CCN(CC(=O)Nc1c(F)cccc1F)C(=O)c1ccc(N2CCCC2=O)cc1,16.3
5,COc1cccc(CNC(=O)c2ccc(CS(=O)(=O)Cc3ccc(C)cc3)o2)c1,-12.8
6,CCC(CC)CN1C(Nc2ccccc2)=NC[C@@H]1C,-2.94
7,COc1ccc(OC)c(-c2csc(NC(=O)Cc3ccc(OC)c(OC)c3)n2)c1,2.48
8,O=C(COc1ccc(Oc2ccccc2)cc1)NCc1cn2ccccc2n1,-15.6
9,CC(=O)C1=C(O)C(=O)N(c2cccc(Br)c2)C1c1ccccc1Cl (centres unmarked),-4.7
10,O=C(Nc1ccc(CCC(=O)N2CCCC2)cc1)c1ncn[nH]1,-1.64
11,CC1=CC=CN2C1=NC(=O)CC2(C)C(=O)N(CC(=O)NC1CCCC1)Cc1ccccc1 (centres unmarked),18.2
12,CCN(c1ccccc1)S(=O)(=O)c1cc2c3c(c1)CCN3C(=O)CC2,4.72
13,N#CCCS(=O)(=O)c1nnnn1-c1ccccc1,-18.7
14,CCc1ccc(Sc2cc(C(=O)NCCN3CCOCC3)c3ccccc3n2)cc1,-56.2
15,COc1ccc(CNc2cc(C)cc(C)c2)cc1OC,11.7
16,CC/C(=C1/C(=O)CC(C)(C)C(C(=O)OC)C1=O)N1CCCC1 (centres unmarked),17.8
17,CC1(C)Cc2c(sc3nc4n(-c5ccccc5)cnn4c(=O)c23)CO1,1.85
18,CCc1ccc2c(c1)/C(=N/OC)C(=O)N2,-11
19,COc1ccc(OC(C)C(=O)N2CCCc3ccccc32)cc1 (centres unmarked),13.7
20,CCC(C)NC(=O)c1ccc(N2CCC3(CC2)OCCO3)c([N+](=O)[O-])c1 (centres unmarked),1.43
21,Cc1cc(C)c(OCC(=O)OCC(=O)N(C)C2CCS(=O)(=O)C2)c(C)c1 (centres unmarked),5.95
22,COc1cccc(N2CCN(C3CC(=O)N(c4cccc(Cl)c4)C3=O)CC2)c1 (centres unmarked),-14.4
23,CC(C)(C)c1ccc(C(=O)NCC2CCCN2S(=O)(=O)c2ccccc2)cc1 (centres unmarked),-6.28

row,SMILES,"hERG current change (%, negative = inhibition) at 10uM [%]"
1,CCOC(=O)c1nn(-c2ccc(C)cc2)c(=O)c2c(N)scc12,-3.9
2,COc1ccc(Br)cc1C(=O)Nc1cc(C)cc(C)c1,5.21
3,CCn1c2ccccc2c(=O)c2ccccc21,-0.474
4,C#CCNC(=O)C1=C[C@@H](c2coc3ccccc3c2=O)C[C@@H](OCc2ccc(CO)cc2)O1,-33
5,COc1ccccc1CCNC(=O)c1ccoc1C,3.49
6,CCOC(=O)c1c(CN2CCN(CCO)CC2)n(C)c2cc(Br)c(OC)cc12,-11.3
7,CCN(CC)S(=O)(=O)c1ccc(F)c(C(=O)OC2CC(C)OC2=O)c1 (centres unmarked),-2.4
8,COc1ccc(CCNC(=O)Cn2c(-c3nonc3N)nc3ccccc32)cc1OC,-4.07
9,Cc1ncc(CCl)c2c1OC(C)(C)OC2.Cl,10.2
10,CCc1nnc(NC(=O)C(C)N2C(=O)C3C4C=CC(C4)C3C2=O)s1 (centres unmarked),-0.654
11,CCC(C)c1ccc(NC(=O)CN(C)CC(=O)Nc2cccc(OC)c2)cc1 (centres unmarked),-3.55
12,CNC(=S)N/N=C(\C)c1cccc([N+](=O)[O-])c1,-10
13,COc1ccc(OC)c(S(=O)(=O)N2CCCCC2C(=O)O)c1 (centres unmarked),-2.13
14,N#CC(c1ccccc1)N(CCCCl)C(=O)c1ccc(Br)cc1 (centres unmarked),-9.57
15,CNC(=O)N(c1ccccc1)c1ccccc1,3.75
16,Cc1ccc(N(CC(=O)NC2CCCCC2)C(=O)CCCC(=O)Nc2ccccn2)cc1,9.72
17,COc1ccccc1OCc1nc(-c2ccc([N+](=O)[O-])cc2)no1,0.0301
18,O=C1CC(Sc2cccs2)C(=O)N1c1ccccc1 (centres unmarked),14.5
19,O=C(Nc1sc2c(c1C(=O)O)CCC2)c1ccc(F)cc1,29.8
20,Cc1ccccc1S(=O)(=O)c1c(C)cc(C)n(C(C)C)c1=O,-14.9
